# Experimental data published in PMC6919601, “Identification of Plasmodium dipeptidyl aminopeptidase allosteric inhibitors by high throughput screening” (PLoS ONE, 2019).
# Where “and” joins values, the source holds several entries; their conditions need not be identical. Identical values can stand only once. Among all 110,000 compounds or so, about 230 (0.21%) showed an effect of 50% or more. The list shows a part of the results.
# Target: DPAP1 (Plasmodium falciparum, UniProt Q8IIJ9)
# Assay: primary screen, percent inhibition; read by cleavage of a fluorogenic dipeptide substrate; higher = more effect of the substance
# Set-up: species or system P. falciparum D10 trophozoite lysates; single well
# 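Also: 30 min substrate incubation versus DMSO and 10 µM JCP410 controls.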
# Chain of DPAP1 (Q8IIJ9 whole entry, looked up): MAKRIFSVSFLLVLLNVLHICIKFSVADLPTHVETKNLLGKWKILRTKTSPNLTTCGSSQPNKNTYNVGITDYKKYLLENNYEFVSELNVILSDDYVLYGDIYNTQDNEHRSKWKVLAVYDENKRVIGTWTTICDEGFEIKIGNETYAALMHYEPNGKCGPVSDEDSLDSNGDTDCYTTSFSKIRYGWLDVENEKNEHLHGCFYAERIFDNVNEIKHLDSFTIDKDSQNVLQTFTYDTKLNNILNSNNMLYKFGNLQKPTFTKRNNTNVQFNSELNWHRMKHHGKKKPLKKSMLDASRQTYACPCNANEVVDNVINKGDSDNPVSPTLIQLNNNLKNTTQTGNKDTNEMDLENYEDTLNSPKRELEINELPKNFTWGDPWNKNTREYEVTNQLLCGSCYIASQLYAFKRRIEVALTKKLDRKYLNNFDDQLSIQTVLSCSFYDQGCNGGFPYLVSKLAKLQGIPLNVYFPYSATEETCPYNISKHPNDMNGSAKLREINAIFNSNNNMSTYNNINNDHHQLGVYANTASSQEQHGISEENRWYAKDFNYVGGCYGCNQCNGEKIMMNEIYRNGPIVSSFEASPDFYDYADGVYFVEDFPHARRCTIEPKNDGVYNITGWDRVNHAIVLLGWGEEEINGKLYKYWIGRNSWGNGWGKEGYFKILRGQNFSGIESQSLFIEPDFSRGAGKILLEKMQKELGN
row,SMILES,% Inhibition @ 10 uM
1,Cc1ccc(N(CC(=O)N2CCN(c3ccccc3)CC2)S(=O)(=O)c2ccc(C)cc2)cc1,4.49%
2,Cc1ccc(Cn2ccc(NC(=O)c3cc(-c4ccc(F)cc4)on3)n2)cc1,-2.65%
3,CN(C)CC(C)(C)CNC1CCC(C(C)(C)C)CC1 (stereo not drawn),4.74%
4,COc1ccc(/C=C2/SC(=O)N(CN(C)C)C2=O)c(OC)c1,17.3%
5,COc1cccc(CN2CCN(Cc3cccc(Br)c3)CC2)c1,-6.41%
6,Cc1ccc2onc(CNC(=O)Nc3cccnc3)c2c1,-4.63%
7,Cc1ccc2ncc(C(=O)O)c(O)c2c1,-2.48% and 3.82%
8,CC(C)OCCCn1c(=O)c2ccccc2n2c(CCC(=O)N3CCC(C(N)=O)CC3)nnc12,1.73%
9,Cc1cc(C)c(/C=C(\C#N)C(N)=S)c(C)c1,-1.59%
10,CC(C)(C)c1ccc(S(=O)(=O)/N=C2\C=C(SCC(=O)O)C(=O)c3ccccc32)cc1,-1.69%
11,Cc1nc2ccc(S(=O)(=O)NCC(=O)N3CCN(c4ccccn4)CC3)cc2s1,0.953%
12,CCCSc1nnc2c(n1)OC1(CCCCC1)Nc1ccccc1-2,1.27%
13,CCOC(=O)C1CCN(C(=O)c2ccc(C#CC(C)(C)O)cc2)CC1,-4.93%
14,COC(=O)CCC(=O)Nc1ccccc1NC(=O)CCC(=O)OC,-2.77%
15,CC1CCC(NC(=O)C2c3ccccc3C(=O)N2CCc2ccc(Cl)cc2)CC1 (stereo not drawn),1.76%
16,C=CCSc1nc(=O)c2c(n1C)NC(=O)CC2c1ccc(O)cc1OC (stereo not drawn),-2.88%
17,CCOC(=O)c1c(C)[nH]c(C)c1S(=O)(=O)NCCN(C)C1CCCCC1,-0.873%
18,COc1ccc(CCN2C(=O)CC(N3CCN(c4ccc(Cl)cc4)CC3)C2=O)cc1OC (stereo not drawn),1.61%
19,C/C=C/Cn1c(SCCc2ccccc2)nc2c1c(=O)[nH]c(=O)n2C,-4.48%
20,CN(Cc1ccccc1)S(=O)(=O)c1ccc(NC(=O)COc2ccccc2)cc1,1.29%
21,Cc1ccc(S(=O)(=O)N(CC(=O)N2CCN(C)CC2)c2ccc(F)cc2)cc1,10.6%

row,SMILES,% Inhibition @ 10 uM
1,N#C/C(=C/c1c[nH]c2ccccc12)C(=O)Nc1ccc(Cl)cc1,-1.32%
2,Cc1sc(NC(=O)C2C3C=CC(C3)C2C(=O)O)nc1-c1ccccc1 (stereo not drawn),-9.05%
3,CCS(=O)(=O)C1=NN2C(=N)/C(=C\c3ccc(OC(C)c4ccccc4)c(OC)c3)C(=O)N=C2S1 (stereo not drawn),-1.54%
4,O=C(O)COc1ccc(Cl)cc1C1C2=C(CCCC2=O)OC2=C1C(=O)CCC2,-13.4%
5,Cc1ccc2c(c1)OC(=O)CC2c1ccccc1 (stereo not drawn),-5.26%
6,Cc1ccc(OCC(=O)Nc2cnc(O)nc2O)cc1,19.4%
7,COCCNC(=O)c1ccc(CS(=O)(=O)Cc2ccc(Cl)cc2)o1,2.05%
8,CN(C)c1ccc(NC(=O)COc2ccc(Br)cc2)cc1,0.746%
9,COc1ccc(-n2c(C)cc(C=C3C(=O)c4ccccc4C3=O)c2C)cc1,5.37%
10,COc1ccc(/C=C(/C#N)C(=O)Nc2ccc(Cl)cc2)c(C)c1,2.05%
11,Cc1cc(C)nc(SCCS(=O)c2ccc(C(C)(C)C)cc2)n1 (stereo not drawn),2.95%
12,CCOC(=O)c1c(C)sc2c3c([nH]c12)CCCC3,9.19%
13,Cc1ccc(S(=O)(=O)NC(C)C)cc1[N+](=O)[O-],-4.35%
14,CN1C(C)(C)CC(NC(=O)c2ccc(-n3cnnn3)cc2)CC1(C)C,1.98%
15,O=S(=O)(c1ccc(C2=CSC3=NCCN23)cc1)N1CCOCC1,1.72%
16,Cc1ccc(CCNC(=O)Cn2nc(-c3ccccc3)ccc2=O)cc1,-1.21%
17,NC(=O)C1CCN(C(=O)c2cccc(C#Cc3ccccc3)c2)CC1,2.05%
18,CCOC(=O)C1=C(C)NC(=O)CC1c1ccccc1 (stereo not drawn),-2.2%
19,Cc1ccccc1-c1noc(-c2nnn(-c3ccccc3)c2N)n1,3.73%
20,COc1ccccc1N1CCN(C(=O)c2ccc(-c3ccccc3)cc2)CC1,0.847%
21,CC1=C(C(=O)Nc2ccc(F)cc2F)C(c2cccc(Cl)c2)C2=C(O)CCCC2=N1 (stereo not drawn),-0.99%

row,SMILES,% Inhibition @ 10 uM
1,Cc1ccc(N2C(=O)CC(N3CCN(c4ccccn4)CC3)C2=O)cc1 (stereo not drawn),4.27%
2,Oc1ccc(Br)cc1-c1ccnn1-c1ccccc1,0.196%
3,CN1CCN(Cc2coc3c(Cl)cc(Cl)cc3c2=O)CC1,-6.24%
4,CC(C)CCn1c(=O)c2cccnc2n(Cc2ccc(Cl)cc2)c1=O,3.13%
5,COc1ccc(-c2cc(C(=O)O)c3c(C)[nH]nc3n2)cc1,0.0654%
6,O=C(Nc1ccc(-c2cn3cccnc3n2)cc1)c1ccc(F)cc1,-1.44%
7,Cc1cccc(N2CCN(C(=O)CCC(=O)O)CC2)c1C,-3.24%
8,CCOc1ccc(N2C(=O)CC(N3CCN(c4ccc(F)cc4)CC3)C2=O)cc1 (stereo not drawn),-6.67%
9,CCOc1ccc(NC(=O)COc2ccc(C)cc2)cc1,-2.03%
10,COc1ccc(C2C3=C(O)CC(c4ccccc4)CC3=NC(C)=C2C(=O)Nc2ccccn2)c(OC)c1 (stereo not drawn),0.851%
11,COc1ccccc1NCC(O)CN (stereo not drawn),24.8%
12,Cn1c(=O)c2sccc2n2c(CCC(=O)NC3CCN(Cc4ccccc4)CC3)nnc12,-6.94%
13,Cc1ccc(-n2c3c(c(O)c(-c4ccccc4)c2=O)C(=O)CC(C)(C)C3)cc1,4%
14,CCOC(=O)c1c(C)nc2n(CCN3CCOCC3)c3ccccc3n12,0.486%
15,COc1cc(C(=O)NCc2nnc(SCc3cccnc3)o2)cc(OC)c1OC,-5.27%
16,O=C(Nc1c(C(=O)O)oc2ccc(Br)cc12)c1ccccc1,2.25%
17,CCCCNC(=O)c1ccc(CNS(=O)(=O)c2ccc(Br)cc2)cc1,0.208%
18,Cc1ccc(C)c(Cn2nc3nc(C)nc(N4CCC(CNC(=O)OC(C)(C)C)CC4)c3n2)c1,-3.08%
19,OCC1CCCCN1C1CN2CCC1CC2 (stereo not drawn),1.57%
20,COc1ccccc1CN1CCN(Cc2ccc(OC)c(OC)c2OC)CC1,-4.21%
21,CCc1c(C)c2cc3c(C)c(C)oc3c(C)c2oc1=O,-1.15%
